Measured values: PubChem BioAssay AID938 (National Center for Advancing Translational Sciences (NCATS), 2007)
About 1,800 (2.5%) of roughly 73,000 compounds were called active. Roughly 13% stayed inconclusive and do not appear here. Calls come from the whole dose curve; as a rule, active = well fitted activation curve with a large enough effect; inconclusive = small, poorly fitted or top-dose-only effect; inactive = no such curve, though single readings can be large or run the other way. This is a selection; strong and weak results do not stand in their true shares.

experiment: qHTS Assay for Agonists of the Thyroid Stimulating Hormone Receptor: Activators of Intracellular cAMP Concentrations in Parental HEK 293; conditions: parental HEK293 CNG cAMP sensor, membrane potential fluorescence; series mostly up to 57.1 µM; activation: at the top concentration; note: nearly all actives have a fitted effect of over 55% in size; for activation: % of control where 0% means no effect
Method in brief: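 Parental HEK 293 cells stably expressing a cAMP-gated CNG channel were loaded with membrane potential dye containing 100 uM RO 20-1724 for 60 min. Compound added for 30 min; depolarization read as fluorescence intensity at 590 nm.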
Potency is the fitted concentration of half-maximal effect.

| SMILES | Potency | activation |
| --- | --- | --- |
| COC(=O)[C@@]1(Cc2ccccc2)[C@H]2c3cc(C(=O)N(C)C)n(CCF)c3C[C@H]2CN1C(=O)c1ccccc1 | active: 25.1 µM |  |
| COCCn1c(=O)c(-c2cccc(C#N)c2)nc2cnc(Nc3ccccc3)nc21 | active: 0.251 µM |  |
| Cc1cc(C)nc(Sc2c(C)n[nH]c2C)n1 |  | inactive: -2.28% |
| COc1cc(NC(=O)c2ccco2)c(OC)cc1NC(=O)CSc1ncc(-c2ccc(F)cc2)[nH]1 |  | inactive: -44.8% |
| CC1CN(CCc2ccccc2)c2nc3c(c(=O)[nH]c(=O)n3C)n2C1 (centres undefined) |  | inactive: -31.1% |
| N=c1c(C(=O)NCc2ccco2)cc2c(=O)n3ccccc3nc2n1Cc1ccccc1 |  | inactive: -129% |
| COC(=O)CS |  | inactive: -21.2% |
| Cc1c(C(=O)Nc2ccc(N3CCOCC3)cc2)oc2ccccc12 |  | inactive: -36% |
| COc1ccccc1Nc1nc(NCCO)c2ccccc2n1 |  | inactive: -51.1% |
| O=c1c2[nH]c3ccccc3c2ncn1C1CCCCC1 |  | inactive: 1.97% |
| COCCNC(=O)CN(C(=O)Cn1nnc2ccccc21)c1ccc(F)c(Cl)c1 |  | inactive: 2.46% |
| COc1ccccc1CNc1ncnc2c1nnn2Cc1ccccc1 | active: 12.6 µM |  |
| COc1ccccc1Nc1nc(N)nc(CSCCO)n1 |  | inactive: -32% |
| CCCCOc1ccc(S(=O)(=O)n2c(C)nc3ccccc32)cc1 | active: 3.16 µM |  |
| c1ccc(CCNc2c3c(nc4ncnn24)CCC3)cc1 | active: 6.31 µM |  |
| C[C@@H](C(=O)NCC1CC1)[C@@H]1C[C@@]1(C)[C@@H](NC(=O)OCc1ccccc1)c1ccccc1 |  | inactive: 20.9% |
| O=C(NC1CCCCC1)C(c1ccccc1)N(Cc1ccco1)C(=O)Cn1cnc2ccccc21 (centres undefined) | active: 20 µM |  |
| CCC1Oc2ccc(C)cc2N(CC(=O)NCc2cccc(OC)c2)C1=O (centres undefined) | active: 12.6 µM |  |
| CC(C)C(C)C |  | inactive: -14.9% |
| N=C1C=CC(=C(c2ccc(N)cc2)c2ccc(N)cc2)C=C1 | inactive |  |
| CCOC(=O)CCC(NC(=O)c1ccc(NCN2C(=O)c3ccccc3C2=O)cc1)C(=O)OCC (centres undefined) | active: 0.794 µM |  |
| CC1=C(SCCC#N)S/C(=C2\SC(C)=C(SCCC#N)S2)S1 |  | inactive: -48.4% |
| Cc1oc(-c2ccc(F)cc2)cc1-c1nn2c(-c3ccoc3C)nnc2s1 | active: 15.8 µM |  |
| O=C1OC2(c3cc(Br)c(O)c(Br)c3Oc3c2cc(Br)c(O)c3Br)c2c(Cl)c(Cl)c(Cl)c(Cl)c21 | active: 15.8 µM |  |
| O=C(O)[C@@H]1[C@@H]2C[C@H]3c4[nH]c5ccccc5c4CCN3C[C@@H]2CC[C@@H]1O |  | inactive: 1.56% |
| COc1ccc2[nH]c(I)c(CCNC(C)=O)c2c1 |  | inactive: -2.06% |
| c1cnc2c(c1)ccc1cccnc12 | inactive |  |
| CCOc1ccc(Br)cc1/C=N/O | active: 3.98 µM |  |
| CCOC(=O)c1cc(=O)n2[nH]c(-c3ccc(C)cc3)cc2n1 |  | inactive: -33.1% |
